Laboratory results: PMC5892938
The list shows a part of the results. At the low end of the ranking the order means little.

What follows are sequences tested against GST-SBP-SLBP (stem-loop binding protein) (UniProt Q14493) (assay: targeted RNA Bind-n-Seq). Conditions: RBNS binding buffer: 25 mM Tris pH 7.5, 150 mM KCl, 3 mM MgCl2, 0.1% Tween, 0.5 mg/mL BSA, 1 mM DTT; 27 nM protein, 750 pM RNA pool; temperature not stated; high values mean tight binding.
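Further: DESeq read counts versus GST-SBP nonspecific binding control pulldown.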

| Sequence | binding signal (log2 fold change) |
| --- | --- |
| GGUCACGUCUCAAUCAACUCAUCUUCAGGAGUUUUCUCCUGUUAUUUCAACAGCUCGCAGUCAAG | 0.247 |
| GGUCACGUCUCAAUCAACUCUUUUUCCAGGGAAAUCCCUGGUUUUCUCAACAGCUCGCAGUCAAG | -0.161 |
| GGUCACGUCUCAAUCAACUCUAUUCCCAGGGAAAACCCUGGCUUUCUCAACAGCUCGCAGUCAAG | 0.0243 |
| GGUCACGUCUCAAUCAACUCAUGUCCAGGAGUUUCCUCCUGUAAAUUCAACAGCUCGCAGUCAAG | 0.0337 |
| GGUCACGUCUCAAUCAACUCCCUCGAGGGGGGGAAAACCCCUUUACCCUCUUAAUCAACAGCUCGCAGUCAAG | -0.299 |
| GGUCACGUCUCAAUCAACUCAUUCUCCAGGGAAAACCCUGGUAAUCUCAACAGCUCGCAGUCAAG | 0.147 |
| GGUCACGUCUCAAUCAACUCAGUCUCCAGGGAAAUCCCUGGUAUAUUCAACAGCUCGCAGUCAAG | -0.0147 |
| GGUCACGUCUCAAUCAACUCAUUCUCAGGAGUUUACUCCUGCUAUCUCAACAGCUCGCAGUCAAG | 0.26 |
| GGUCACGUCUCAAUCAACUCUUCCCCCAGGGAAAACCCUGGCUAUGUCAACAGCUCGCAGUCAAG | 0.193 |
| GGUCACGUCUCAAUCAACUCUUUCUCCAGGGAAACCCCUGGCAAAUUCAACAGCUCGCAGUCAAG | -0.0165 |
| GGUCACGUCUCAAUCAACUCUAUAGAGGGGGGGAAAACCCCUUUACCCUCCAUCUCAACAGCUCGCAGUCAAG | -0.206 |
| GGUCACGUCUCAAUCAACUCCUAAGAGGGGGGGAAAACCCCUUUGCCCUCGUAAUCAACAGCUCGCAGUCAAG | -0.0596 |
| GGUCACGUCUCAAUCAACUCUUUUCCCAGGGAAACCCCUGGCAAUGUCAACAGCUCGCAGUCAAG | 0.116 |
| GGUCACGUCUCAAUCAACUCAUUCCCAGGAGUUUUCUCCUGCAUACUCAACAGCUCGCAGUCAAG | 0.168 |
| GGUCACGUCUCAAUCAACUCAUUCCCAGGAGUUUUCUCCUGCAAAUUCAACAGCUCGCAGUCAAG | -0.0613 |
| GGUCACGUCUCAAUCAACUCAUUUUCCAGGGAAAACCCUGGUAUUCUCAACAGCUCGCAGUCAAG | 0.193 |
| GGUCACGUCUCAAUCAACUCUUCCUCCAGGGAAAGCCCUGGCAUAUUCAACAGCUCGCAGUCAAG | 0.127 |
| GGUCACGUCUCAAUCAACUCUAAAGAGGGGGGGAAAACCCCUUUGCCCUCAUAUUCAACAGCUCGCAGUCAAG | -0.206 |
| GGUCACGUCUCAAUCAACUCGUUUUCAGGAGUUUACUCCUGCAUUUUCAACAGCUCGCAGUCAAG | 0.0292 |

| Sequence | binding signal (log2 fold change) |
| --- | --- |
| GGUCACGUCUCAAUCAACUCAGUCUCCAGGGAAACCCCUGGCUAUCUCAACAGCUCGCAGUCAAG | 0.207 |
| GGUCACGUCUCAAUCAACUCUACGCCAGGAGUUUUCUCCUGUAUUUUCAACAGCUCGCAGUCAAG | -0.0223 |
| GGUCACGUCUCAAUCAACUCUAUCGAGGGGGGGAAAACCCCUUUACCCUCACUUUCAACAGCUCGCAGUCAAG | -0.306 |
| GGUCACGUCUCAAUCAACUCUAUCUCCAGGGAAAUCCCUGGCUUUCUCAACAGCUCGCAGUCAAG | -0.0107 |
| GGUCACGUCUCAAUCAACUCAACUUCCAGGGAAAACCCUGGUUUAUUCAACAGCUCGCAGUCAAG | -0.032 |
| GGUCACGUCUCAAUCAACUCAUCGCCAGGAGUUUUCUCCUGUUUUCUCAACAGCUCGCAGUCAAG | 0.0619 |
| GGUCACGUCUCAAUCAACUCUUAAGAGGGGGGGAAAACCCCUUUACCCUCAUACUCAACAGCUCGCAGUCAAG | -0.392 |
| GGUCACGUCUCAAUCAACUCAUUCUCAGGAGUUUCCUCCUGCUAAGUCAACAGCUCGCAGUCAAG | 0.146 |
| GGUCACGUCUCAAUCAACUCAUUUCCAGGAGUUUGCUCCUGCAUUCUCAACAGCUCGCAGUCAAG | 0.0315 |
| GGUCACGUCUCAAUCAACUCAGUCUCAGGAGUUUACUCCUGCAAAUUCAACAGCUCGCAGUCAAG | -0.0839 |
| GGUCACGUCUCAAUCAACUCUUCCCCCAGGGAAAUCCCUGGCAAAUUCAACAGCUCGCAGUCAAG | -0.0552 |
| GGUCACGUCUCAAUCAACUCUUUAGAGGGGGGGAAAACCCCUUUGCCCUCAUUCUCAACAGCUCGCAGUCAAG | -0.217 |
| GGUCACGUCUCAAUCAACUCUAAAGAGGGGGGGAAAACCCCUUUACCCUCCAUAUCAACAGCUCGCAGUCAAG | -0.526 |
| GGUCACGUCUCAAUCAACUCUCACGAGGGGGGGAAAACCCCUUUACCCUCUACAUCAACAGCUCGCAGUCAAG | 0.123 |
| GGUCACGUCUCAAUCAACUCUAUCCCAGGAGUUUUCUCCUGCUUUUUCAACAGCUCGCAGUCAAG | 0.0607 |
| GGUCACGUCUCAAUCAACUCCCUAGAGGGGGGGAAAACCCCUUUACCCUCAAAUUCAACAGCUCGCAGUCAAG | 0.137 |
| GGUCACGUCUCAAUCAACUCUACUCCCAGGGAAAACCCUGGUUAUUUCAACAGCUCGCAGUCAAG | 0.166 |
| GGUCACGUCUCAAUCAACUCAGUCUCAGGAGUUUGCUCCUGCUUAUUCAACAGCUCGCAGUCAAG | -0.0841 |
